Reference: PubChem BioAssay (NCI)
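Grown in 96-well plates, cells were treated for 48 hours with each compound at five concentrations. Insufficient inhibition: endpoint recorded as highest concentration tested. GI50: concentration for 50% inhibition of growth. TGI: total growth inhibition.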

The molecules below were run on NCI-H322M lung (assay: inhibition of tumour cell growth, NCI panel, 48 h).

Row | Structure (SMILES) | GI50 [µM] | TGI [µM]
1 | CCNCCOc1ccc(/C(=C(/CC)c2ccc(Cl)cc2)c2ccc(OCCCN(C)C)cc2)cc1 | 3.84 | 7.32
2 | CC(=O)Nc1cc(F)cc(-c2ccc3[nH]cc(-c4ccccc4)c3n2)c1 | 4.14 | 16
3 | CN(C)CCCNc1c2ccc(Cl)cc2nc2c1oc1ccccc12 | 2.45 | 9.44
4 | COc1ccc(/C=N/NC(=O)c2[nH]c3ccc(Br)cc3c2-c2ccccc2)s1 | 0.365 | > 100
